These results are taken from the RNAGym collection of RNA variant scans (doi:10.1093/nar/gkz1192).

First the molecules themselves.
B1: CPEB3 Ribozyme (parent)
chain: UAACAGGGGGCCACAGCAGAAGCGUUCACGUCGCAGCCCCUGUCAGAUUCUGGUGAAUCUGCGAAUUCUGCUGUAUAUCUC

The source gives no read counts; variants with many changes may rest on few reads.

Variants of B1 are the subject of the data set. Nature of the data set: self-cleavage, relative activity (ratio to wild type); higher = more cleavage; in vitro, sequencing. In short, it runs like this: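 Libraries of CPEB3 self-cleaving ribozyme mutants came from rounds of error-prone PCR and carried barcodes, which DNA sequencing matched to variants. In vitro transcription used T7 RNA polymerase at 37°C for 5 hours, with a further 15 min in DNase I before EDTA stopped the reaction; the ribozymes cleaved during both steps. The RNA was reverse transcribed with template switching and sequenced on Illumina. Relative activity is the cleaved/total read fraction of a variant divided by that of the unmutated ribozyme, averaged over three batches with at least 5 reads.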
With A2G A13U A77G, the self-cleavage is 0.63.
Consider A2C A45U U49A G53U U67A U78C, for which the self-cleavage is 0.1.
Regarding U1C U25C A64U U74G, the self-cleavage was 0.15.
In the case of A2G A21G A56U A57G, the self-cleavage is 0.15.
Turning to U1C A28G A35G A65G U72C A75G U76A, the self-cleavage was determined as 0.25.
With U1C C12U A13G U25C A65G U66C, the self-cleavage is 0.05.
With A2G A13G C27U U58C C71U, the self-cleavage worked out at 0.1.
U1C A13G U60A: the self-cleavage was 0.21.
Take U1C U26A G36U A45G U49A U51C: the self-cleavage worked out at 0.05.
For U1C C11U A15G A65G U74A, the self-cleavage came to 0.24.
Consider A2G A18G G33A A35G U41A, for which the self-cleavage was found to be 0.05.
As for U1C A13G G16A A35C U41C A56U, the self-cleavage was found to be 0.04.
Regarding U1C G55C A56G U60A U69C U76A C81U, the self-cleavage came to 0.07.
For the variant U1C A15U U49C U58C, the self-cleavage was found to be 0.08.
On to U1C A3G U54C, for which the self-cleavage is 1.09.
Regarding U1C C14U A18G C40G U69C, the self-cleavage was found to be 0.11.
To A2G A3G A18G U26C A64G belongs 0.62; to U1C C23U U26A G42U U72A U80C, 0.2; to A2C U26C A64G, 0.35.
Take U1C A3G C34A A64C U69C U72A: the self-cleavage was 0.06.
In the case of U1C U26C G52A U78C, the self-cleavage was found to be 0.21.
To U1C A5G A35U belongs 0.48.
For A2G A20G U49C the value was 0.56; for U1C A21G G46U U49C U60A, 0.24.
In the case of U1C C27U A57G, the self-cleavage is 0.24.
In the case of U1C A5G G7C U49A, the self-cleavage was found to be 0.28.
On to U1G A18U C29U U49C, for which the self-cleavage amounted to 0.24.
Consider A2G A3G A5U A13G U26C U48G, for which the self-cleavage turned out to be 0.21.
With A2G A5G U26C A28U A65G U72C, the self-cleavage was 0.14.
As to U1C G6A U54G U60C U69A U80C, the self-cleavage was 0.15.
U1C A18G U72A: the self-cleavage is 0.22.
To U1C U66A U67C belongs 0.2; to A2C A13U A21G A35U A45G U80C, 0.49; to U1C A20G C32U U54A U72A, 0.05.
For the variant A2G A5U U26A U78A, the self-cleavage was found to be 0.94.
As for U1C A13G A18G A64U, the self-cleavage was found to be 0.08.
Turning to A2C G8A U72C, the self-cleavage stood at 0.4.
With U1C U31C G33A C40G U49C U51C U74C, the self-cleavage turned out to be 0.06.
With A2G A3G U58C, the self-cleavage was found to be 0.61.
Turning to U1C U48C G55U U60C C79U, the self-cleavage turned out to be 0.09.
In the case of A2G A13G A20U U51C U54C U78C, the self-cleavage was found to be 0.07.
Turning to U1C G9A C14U A56G, the self-cleavage came out at 0.33.
To U1C A13G U41A belongs 0.31; to U1C U41C U51C U54C U76C, 1.02; to U1C U26A U41A A56G U66C, 0.28.
On to U1G U66C C68A U76A, for which the self-cleavage came to 0.14.
As for U1C A20G U26C A56G, the self-cleavage turned out to be 0.1.
In the case of U1C U49A A64G C71A A75C, the self-cleavage is 0.23.
With A2G A20G C32U U41A A56U U72A, the self-cleavage came out at 0.06.
As for U1C A13G A45G C59A A65G U67A, the self-cleavage was 0.23.
To U1C U31C C44A U54C A64G belongs 0.25; to U1C U25C U26C A35G A65G A75G, 0.93.
As for U1C A3G G7U C17U A35G U43C U80A, the self-cleavage stood at 0.04.
In the case of U1C A15U A28U A56U A57G U58C U69C, the self-cleavage was determined as 0.07.
In the case of A2G A3G A13G A20U U54G G63A, the self-cleavage amounted to 0.69.
For the variant U1C A15G U41C A64G, the self-cleavage turned out to be 0.45.
Turning to U1G C40U A45C U72C, the self-cleavage was determined as 0.44.
To U1C U25G C27U U41C A75U U80C belongs 0.1; to A2G A3G A13G A20G G36A A65G, 0.06; to U1C C34G A47G G63U, 0.05.
With U1C A18G A65G U69A C81A, the self-cleavage came out at 0.25.
Turning to U1C U51C U58C A64G U78C, the self-cleavage stood at 0.11.
As to U1C G30A A57G A77G, the self-cleavage stood at 0.11.
For A2G A15G U41A A56G U72C the value was 0.14; for U1C A18G A56U, 0.31.
In the case of U1C A28G U48C, the self-cleavage was determined as 0.1.
As to U1C U51C C59U, the self-cleavage stood at 0.39.
As to A2G A15G U72A U80C, the self-cleavage is 0.41.
Turning to A2C A5C U60C, the self-cleavage came to 0.73.
Turning to A2G A5U C12G C39A A45G A57U, the self-cleavage amounted to 0.08.
On to U1C A5G U54A U80A, for which the self-cleavage came out at 0.66.
For U1C U43A A57G, the self-cleavage was found to be 1.18.
To U1C A13G A18G U26C U41C A65G belongs 0.09; to U1C U41A A45G U54C, 0.17; to U1C U51A U69G, 0.75.
On to A2G A18U C23U A28G, for which the self-cleavage amounted to 0.35.
For A2C A15U A47G C79A the value was 0.74; for U1C C11A A15U U41C, 0.21.
With A2C A13G A21G, the self-cleavage came out at 0.68.
Regarding A2G A13U U26C A28U U60C A65G A77U, the self-cleavage was determined as 0.04.
To A2C A15U U43C U78C belongs 0.25.
To U1C A15U A18C U26A U51C A64G belongs 0.04; to U1C G9A C38U A65U U69A, 0.1; to U1C A47G U58C G70C, 0.15.
U1C A5G U69C: the self-cleavage came out at 0.18.
For U1C A18C G36A A75U U80C, the self-cleavage is 0.06.
To U1C G6A A21G A28C U51A A64G belongs 0.3; to A2G A18G U25A U69C, 0.11; to U1C G8U U54C A56G A57G U60C U78C, 0.04.
A2G A15G A18G A45U: the self-cleavage came out at 0.44.
Turning to U1G C38U U43C U49C U54C U60A U69A, the self-cleavage worked out at 0.05.
Consider A2G A5U A20U A28C, for which the self-cleavage stood at 0.58.
On to A2G A5G G6U A56U, for which the self-cleavage stood at 0.04.
Turning to U1C A15G A64G A77U, the self-cleavage stood at 0.8.
To U1C A5U C29U U31C U51C G63C A64U belongs 0.09; to U1C A47G U58C U60C, 0.51; to U1C G42A U72A, 0.28.
For U1C A20G U72A the value was 0.27.
Consider U1C A20U U41C U51A U69A, for which the self-cleavage worked out at 0.23.
Take U1C A3G U26A: the self-cleavage stood at 0.6.
Take A2C A3G C23U U26C U41C U60C: the self-cleavage was determined as 0.56.
As for U1C U49A U66C, the self-cleavage came to 0.17.
Turning to A2G A20U A21G U26A, the self-cleavage was 0.31.
With A2G A5C U26C G33A U67C G70A, the self-cleavage worked out at 0.1.
For the variant U1C A5G G42A U66C, the self-cleavage stood at 0.26.
As to U1C A5G A15G A56G, the self-cleavage is 0.49.
As for U1C A28G U41C U58A, the self-cleavage worked out at 0.21.
With U1C U25C U26A U49C, the self-cleavage was 0.28.
To A2G A3U A18U A56G U72C belongs 0.87; to U1C A13U U66C C81A, 0.53.
As to U1G C12A C29U C34U, the self-cleavage came to 0.08.
As to A2G A5G U31C U51C U58C, the self-cleavage is 0.25.
As to U1C A15G U41A U69C, the self-cleavage turned out to be 0.37.
Consider A2G A5U U60A, for which the self-cleavage is 0.18.
Take U1C U25A U80A: the self-cleavage worked out at 0.35.
On to U1C A35U U58C U67C U80C, for which the self-cleavage turned out to be 0.07.
Consider U1C C23G U43C, for which the self-cleavage was found to be 0.3.
A2G A13C A15U U25A A47U: the self-cleavage worked out at 0.4.
Regarding U1C A5U A28U A35U, the self-cleavage was 0.53.
To U1C A18C U43C U72G G73C belongs 0.07.
To U1C U43C U51A U54G C59A belongs 0.16; to A2G A5G A45G C62G A64U, 0.08.
Consider U1C A56G U72C, for which the self-cleavage was 0.54.
As for A2C U69C U80C, the self-cleavage turned out to be 0.42.
For U1C A20U C79G, the self-cleavage worked out at 0.38.
Consider A2C U25G U41A U66C U72A, for which the self-cleavage is 0.06.
Take A2G A15G U67C: the self-cleavage amounted to 0.14.
For U1C G33A U54G A56U the value was 0.15.
Consider A2G A20U C29U C37A A47U, for which the self-cleavage was 0.25.
Consider U1G G6A C12G A20U U78C, for which the self-cleavage was determined as 0.04.
For U1C U25C A35G U41A U54A U69C, the self-cleavage was 0.27.
Regarding U1C U26C A47G U72A U80A, the self-cleavage was 0.11.
U1C U48C U72A: the self-cleavage amounted to 0.22.
For U1C A20G U25A U41G U51C U69C the value was 0.04; for U1C A13U A20G C68G U74A, 0.18; for U1C A18U A20U G53U U78C, 0.05.
With U1C C50A U60A G73A U74G U76C, the self-cleavage was 0.59.
For A2G A18U A21G C27U U43A A45U U54C, the self-cleavage was found to be 0.26.
To U1C A5U A20G C34A U72A belongs 0.06; to U1C G30U A35G U41A A45G U48C U66C, 0.06; to A2G A5G A18C U43C U51A U66A, 0.1.
As to A2G A5U A28G U41A A56U A65G U76A, the self-cleavage worked out at 0.07.
As for U1C U43C U69A, the self-cleavage came out at 0.32.
Regarding U1C A57C A65G U74G, the self-cleavage was determined as 0.07.
U1C A5C A20U G36A: the self-cleavage is 0.08.
To U1C U31C A35G A45G U58C U72A belongs 0.25; to U1C A13G A15G A45G U60C A65U, 0.32.
To A2G A15G A28C A57G U78C U80C belongs 0.04.
U1C G6A A21G U43C G61A: the self-cleavage was found to be 0.17.
For A2G A15C U31C U80A the value was 0.55.
As to U1C A20G C29U U80C, the self-cleavage worked out at 0.38.
Take U1C A15U U74C: the self-cleavage turned out to be 1.06.
Take A2C C23U U49G A56G A64U: the self-cleavage was 0.03.
As to U1C G9A A35C U58C G73U U74C, the self-cleavage stood at 0.05.
To U1C A18G C68U belongs 0.57; to A2G A5G A15G A20U A21G U43C, 0.61.
Turning to U1C A18U U43C U60G U69A, the self-cleavage stood at 0.18.
Regarding U1G A5G G19A U80C, the self-cleavage turned out to be 0.34.
For A2G A18G U67C, the self-cleavage came out at 0.07.
Take U1C A5G G33A G55U U72C C81U: the self-cleavage was found to be 0.05.
As to U1C U25C A77U U78C, the self-cleavage was 0.36.
To A2G A20U U43C U48C A56U belongs 0.04; to U1C A28G A35U U67C, 0.05; to A2C C23A A64C, 0.06.
For A2C C23A A64U the value was 0.16; for U1C A20C A56U A57G, 0.09.
To U1C G8A U31A U48C belongs 0.04.
